Experimental data: PubChem BioAssay AID1461 (National Center for Advancing Translational Sciences (NCATS), 2008)
The campaign covered roughly 220,000 compounds. About 2,300 (1%) were called active. This list was built around the results that the source calls inconclusive (neither active nor inactive); the mix of calls is not that of the screen. Calls come from the whole dose curve; as a rule, active = well fitted inhibition curve with a large enough effect; inconclusive = small, poorly fitted or top-dose-only effect, or effect the other way; inactive = no such curve, though single readings can be large or run the other way. No potency is given beside an inconclusive call; the fits are too rough.

target: Neuropeptide S receptor (Homo sapiens) (UniProt Q6W5P4); test: qHTS Assay for Antagonists of the Neuropeptide S Receptor: cAMP Signal Transduction; details: CHO-NPSR cells, cAMP TR-FRET, antagonist mode; series mostly up to 38.3 µM; note: nearly all actives have a fitted effect of over 50% in size
Potency is the fitted concentration of half-maximal effect; tags give direction and shape of the fitted curve.

Sequence of UniProt Q6W5P4 (Q6W5P4 whole entry, looked up): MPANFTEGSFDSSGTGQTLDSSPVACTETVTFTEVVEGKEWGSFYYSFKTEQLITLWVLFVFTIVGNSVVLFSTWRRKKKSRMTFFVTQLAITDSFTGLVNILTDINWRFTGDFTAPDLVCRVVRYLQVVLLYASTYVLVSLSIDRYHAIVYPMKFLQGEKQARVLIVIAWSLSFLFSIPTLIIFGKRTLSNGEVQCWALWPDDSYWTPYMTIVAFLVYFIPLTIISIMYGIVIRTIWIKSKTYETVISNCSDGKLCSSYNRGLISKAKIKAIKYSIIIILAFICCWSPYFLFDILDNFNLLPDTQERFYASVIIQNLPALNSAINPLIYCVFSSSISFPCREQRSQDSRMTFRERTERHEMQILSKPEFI

SMILES	Potency
Cc1ccc(Sc2ccc(/C=N/O)cc2[N+](=O)[O-])cc1	inconclusive [inhibitor, single point]
CCSc1oc(-c2ccccc2)nc1S(=O)(=O)c1ccccc1	inconclusive [inhibitor, single point]
O=C(CSc1nnc(COc2ccccc2)n1-c1ccccc1)c1ccccc1	inconclusive [inhibitor, single point]
S=C(NCCc1ccccn1)Nc1cc(Cl)cc(Cl)c1	inconclusive [activator, single point]
CCCCOCC1CN(c2ccccc2)C(=O)CS1 (stereo not given)	inactive
COc1ccccc1Nc1nc(-c2sc(NC(=O)CC(C)C)nc2C)cs1	inconclusive [inhibitor, partial curve, poor fit]
Cc1ccc(S(=O)(=O)Cc2ccc(C(=O)N3CCN(c4cc(C)ccc4C)CC3)o2)cc1	inconclusive [inhibitor, single point]
NCCCCCCNS(=O)(=O)c1cccc2c(Cl)cccc12	inconclusive [activator, partial curve]
Cc1ccc(NC(=O)c2noc3c2CCc2ccccc2-3)cc1	inactive
COc1cc(/C=C/c2nnc3c4ccccc4ncn23)cc(OC)c1OC	inconclusive [inhibitor, single point]
CC(C)c1ccc(C(O)P(=O)(OC2CCCCC2)OC2CCCCC2)cc1 (stereo not given)	inconclusive [inhibitor, single point]
COc1ccc(C(=O)CSc2nnc(-c3ccccn3)n2Cc2ccco2)cc1	inconclusive [inhibitor, single point]
COc1ccc(C)cc1S(=O)(=O)N(CC(=O)NCc1ccc(Cl)cc1)Cc1ccccc1	inconclusive [inhibitor, partial curve]
CCOC(=O)c1c(CC(C)C)csc1NC=O	inactive
CCOP(=O)(c1ccccc1)c1nc(-c2ccccc2C)oc1NCc1ccccc1 (stereo not given)	inconclusive [inhibitor, single point]
CCOC(=O)c1c(NC(=O)CSc2nnc3c(Cl)cc(Cl)cn23)sc2c1CCC2	inconclusive [inhibitor, partial curve, poor fit]
O=C(O)c1cccc(-n2cccc2/C=C/[N+](=O)[O-])c1	inactive
Cc1ccc(C2CC(c3cccs3)=NN2C(=O)c2ccc(Br)o2)cc1 (stereo not given)	active: 10 µM
CCOc1ccc(-c2cc(C(=O)NN)[nH]n2)cc1	inactive
O=C(CSc1nc2ccccc2s1)Nc1nccs1	inactive
